# Source: the supplement of paper PMC4604168 (melanoma cell lines)
# The other results are listed elsewhere or left out. Single values are uncertain, as repeats are few or missing.
# Tested on: A101D
# Assay: cell count relative to DMSO control; melanoma cells; higher = more viable cells
# Details: library dose: low library concentration; 72 h
# 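Note: cell number obtained by counting DAPI-stained nuclei in high-throughput microscope images with image analysis software, screen run in 1,536-well plates.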
row,Structure (SMILES),cell count [%]
1,"CCc1ccc(CCOc2ccc(CC3SC(=O)NC3=O)cc2)nc1 (stereo unspecified) [pioglitazone] + O=C(Oc1ccc([N+](=O)[O-])cc1)N1CCC(C(O)(c2ccc3c(c2)OCO3)c2ccc3c(c2)OCO3)CC1 [JZL184] (first compound 2 µM, partner dose 1 µM)",99.5
2,"O=C(Nc1cc(C(F)(F)F)cc(C(F)(F)F)c1)c1cc(Cl)ccc1O + Cn1cc(C2=C(c3cn(C4CCN(Cc5ccccn5)CC4)c4ccccc34)C(=O)NC2=O)c2ccccc21 [Enzastaurin] (first compound 0.016 µM, partner dose 0.8 µM)",121
3,"Cc1ccc(Nc2nccc(N(C)c3ccc4c(C)n(C)nc4c3)n2)cc1S(N)(=O)=O [Pazopanib] + Cn1cc(C2=C(c3cn(C4CCN(Cc5ccccn5)CC4)c4ccccc34)C(=O)NC2=O)c2ccccc21 [Enzastaurin] (first compound 0.4 µM, partner dose 0.8 µM)",87.7
4,"O=C(Nc1cc(C(F)(F)F)cc(C(F)(F)F)c1)c1cc(Cl)ccc1O + N.N.[Cl][Pt][Cl] [cisplatin] (first compound 0.016 µM, partner dose 1.6 µM)",110
5,"O=C(Nc1cccc(Cl)c1)Nc1ncc(CCNc2ncnc3ccsc23)s1 + O=C(Oc1ccc([N+](=O)[O-])cc1)N1CCC(C(O)(c2ccc3c(c2)OCO3)c2ccc3c(c2)OCO3)CC1 [JZL184] (first compound 0.0008 µM, partner dose 1 µM)",89.1
6,"N#Cc1c(O)c2c(-c3ccc(-c4ccccc4O)cc3)csc2[nH]c1=O + Cc1cc(SCc2sc(-c3ccc(C(F)(F)F)c(F)c3)nc2C)ccc1OCC(=O)O [GW0742] (first compound 2 µM, partner dose 2 µM)",91.2
